The source gives no read counts; variants with many changes may rest on few reads.
B1: CPEB3 Ribozyme (parent)
chain: UAACAGGGGGCCACAGCAGAAGCGUUCACGUCGCAGCCCCUGUCAGAUUCUGGUGAAUCUGCGAAUUCUGCUGUAUAUCUC

Variants of: B1
Experiment: self-cleavage, relative activity (ratio to wild type); higher = more cleavage; in vitro, sequencing
Summary of the method: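 CPEB3 self-cleaving ribozyme mutant libraries were made by rounds of error-prone PCR, barcoded, and transcribed in vitro with T7 RNA polymerase for 5 hours at 37°C. Cleavage occurred during transcription and a 15 min DNase I step before EDTA stop. RNAs were reverse transcribed with template switching and Illumina-sequenced, with DNA sequencing mapping barcodes to variants. Relative activity is the variant's cleaved/total read fraction divided by wild type's (minimum 5 reads), averaged across three batches.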

**Q.** With G8A U66C U80C as the variant, how does the self-cleavage read?
**A.** 0.19

**Q.** Which self-cleavage does the source give for G8A U25C U72C here?
**A.** 0.06

**Q.** Which self-cleavage does the source give for G8A U31A A47C U60A U69A U80C here?
**A.** 0.06

**Q.** With G8C A13U C23G as the variant, how does the self-cleavage read?
**A.** 0.04

**Q.** Which self-cleavage does the source give for G8A U26C U60C here?
**A.** 0.09

**Q.** With G8A U31C C40U U66C U74C as the variant, how does the self-cleavage read?
**A.** 0.06

**Q.** Which self-cleavage does the source give for G8C C11U A45U A47U U58C U60A U80C here?
**A.** 0.04

**Q.** With G8A U69C U74A as the variant, how does the self-cleavage read?
**A.** 0.07

**Q.** With G8C A20U U48C U80G as the variant, how does the self-cleavage read?
**A.** 0.16

**Q.** Which self-cleavage does the source give for G8C G9A C32U here?
**A.** 0.24

**Q.** With G8A U31C C62G as the variant, how does the self-cleavage read?
**A.** 0.11

**Q.** With G8A U60A G63A U69C as the variant, how does the self-cleavage read?
**A.** 0.07

**Q.** Which self-cleavage does the source give for G8C A20C G36A U54A U67C U74C here?
**A.** 0.09

**Q.** With G8C G30C G46U G52U as the variant, how does the self-cleavage read?
**A.** 0.12

**Q.** Which self-cleavage does the source give for G8C A28G A45G here?
**A.** 0.06

**Q.** With G8A U43C A45G U67A U74G as the variant, how does the self-cleavage read?
**A.** 0.04

**Q.** For G8A U41C A64U U67C, which self-cleavage is on record?
**A.** 0.06

**Q.** With G8A U74A U76A as the variant, how does the self-cleavage read?
**A.** 0.14

**Q.** For G8C C34U A56G U74A, which self-cleavage is on record?
**A.** 0.2

**Q.** Which self-cleavage does the source give for G8C A13G A35G A45U A47U U58C G63U here?
**A.** 0.07

**Q.** With G8C A47G U48C as the variant, how does the self-cleavage read?
**A.** 0.11

**Q.** With G8C G9A A18G A57G U69A U72C as the variant, how does the self-cleavage read?
**A.** 0.07

**Q.** Which self-cleavage does the source give for G8A U41C U43A U60G here?
**A.** 0.09

**Q.** With G8A U25C U74A as the variant, how does the self-cleavage read?
**A.** 0.36

**Q.** Which self-cleavage does the source give for G8U A13G A18U C38A U49A here?
**A.** 0.24

**Q.** For G8C C34U U48C U51A A65G, which self-cleavage is on record?
**A.** 0.05

**Q.** For G8C G22U U48C G61A, which self-cleavage is on record?
**A.** 0.05

**Q.** Which self-cleavage does the source give for G8A U58C C59U A64U U69A U78A U80G here?
**A.** 0.03

**Q.** For G8C C32U U43C U58A, which self-cleavage is on record?
**A.** 0.07

**Q.** For G8C A18G A28G A35G A56G, which self-cleavage is on record?
**A.** 0.4

**Q.** Which self-cleavage does the source give for G8C U25C U51G A77G here?
**A.** 0.05

**Q.** With G8A U48A G53C G63U as the variant, how does the self-cleavage read?
**A.** 0.11

**Q.** Which self-cleavage does the source give for G8A U41A C62A U72C here?
**A.** 0.06

**Q.** For G8A U25C U41C U48C C62U A77U, which self-cleavage is on record?
**A.** 0.11

**Q.** With G8C A56G A64G U66C C71A as the variant, how does the self-cleavage read?
**A.** 0.1

**Q.** For G8A U31A U41A U69G, which self-cleavage is on record?
**A.** 0.05

**Q.** For G8A U25C U49C U72C, which self-cleavage is on record?
**A.** 0.2

**Q.** Which self-cleavage does the source give for G8C C37A U72C here?
**A.** 0.5

**Q.** Which self-cleavage does the source give for G8C G33A C38A A47G U51C here?
**A.** 0.03

**Q.** For G8A U26C U58C A64U, which self-cleavage is on record?
**A.** 0.06

**Q.** With G8A U26A C29U G33A A64U U67C as the variant, how does the self-cleavage read?
**A.** 0.05

**Q.** Which self-cleavage does the source give for G8C U26C C39U A77G here?
**A.** 0.38

**Q.** Which self-cleavage does the source give for G8C G9A A21G A28G C68G here?
**A.** 0.04

**Q.** For G8A U31G U43C A45C, which self-cleavage is on record?
**A.** 0.26

**Q.** Which self-cleavage does the source give for G8A U25C U49C U76C here?
**A.** 0.06

**Q.** With G8U A13G C44U A45G U48C as the variant, how does the self-cleavage read?
**A.** 0.06

**Q.** For G8A U58C A64G, which self-cleavage is on record?
**A.** 0.29

**Q.** For G8A U26C U69G, which self-cleavage is on record?
**A.** 0.07

**Q.** For G8C A15U U58C, which self-cleavage is on record?
**A.** 0.17

**Q.** With G8A U49A A56G U67C U72C U78C U80C as the variant, how does the self-cleavage read?
**A.** 0.06

**Q.** With G8A U25C U48C U66C as the variant, how does the self-cleavage read?
**A.** 0.06

**Q.** For G8U A13G U58C, which self-cleavage is on record?
**A.** 0.05

**Q.** With G8A U41C U60A A77G as the variant, how does the self-cleavage read?
**A.** 0.2

**Q.** Which self-cleavage does the source give for G8A U31A C62A A77G U78C here?
**A.** 0.05

**Q.** Which self-cleavage does the source give for G8A U31A U78C here?
**A.** 0.06

**Q.** For G8C A13U A21G C23U U25C G36C, which self-cleavage is on record?
**A.** 0.1

**Q.** Which self-cleavage does the source give for G8C A45G A47G U74C here?
**A.** 0.26

**Q.** Which self-cleavage does the source give for G8A U49C U78C here?
**A.** 0.09

**Q.** With G8C A13G G63A A64C as the variant, how does the self-cleavage read?
**A.** 0.2

**Q.** Which self-cleavage does the source give for G8C U31A A64U here?
**A.** 0.16

**Q.** For G8A U69A A75U, which self-cleavage is on record?
**A.** 0.26

**Q.** Which self-cleavage does the source give for G8A U31C U69C here?
**A.** 0.1

**Q.** With G8C U58C U72C as the variant, how does the self-cleavage read?
**A.** 0.06

**Q.** For G8A U26C U51A, which self-cleavage is on record?
**A.** 0.29

**Q.** For G8A U26C U51G, which self-cleavage is on record?
**A.** 0.07

**Q.** Which self-cleavage does the source give for G8A U48C A65G U72C U80C here?
**A.** 0.15

**Q.** With G8C U43G U51C as the variant, how does the self-cleavage read?
**A.** 0.32

**Q.** For G8A U60C A64U U69C, which self-cleavage is on record?
**A.** 0.31

**Q.** Which self-cleavage does the source give for G8U A13G U54A U58C here?
**A.** 0.22

**Q.** Which self-cleavage does the source give for G8C U25C A35U U51C U60C U67A here?
**A.** 0.06

**Q.** Which self-cleavage does the source give for G8C G24A C32U A57U U69A C71U U74A here?
**A.** 0.03

**Q.** For G8C U60C U80C, which self-cleavage is on record?
**A.** 0.38

**Q.** For G8A U54A C62G U66A U72G U80C, which self-cleavage is on record?
**A.** 0.04

**Q.** Which self-cleavage does the source give for G8C A15G U54C here?
**A.** 0.27

**Q.** Which self-cleavage does the source give for G8C A13C A21G U31A here?
**A.** 0.06

**Q.** With G8A U31A A64U U69A as the variant, how does the self-cleavage read?
**A.** 0.15

**Q.** For G8C U26A A57G, which self-cleavage is on record?
**A.** 0.12

**Q.** For G8A U25G G61A U76C U80A, which self-cleavage is on record?
**A.** 0.04

**Q.** With G8A U49A C50A A64G U72C A77U as the variant, how does the self-cleavage read?
**A.** 0.02

**Q.** For G8A U31C U80C, which self-cleavage is on record?
**A.** 0.13

**Q.** With G8A U31C U67G U69A as the variant, how does the self-cleavage read?
**A.** 0.22

**Q.** Which self-cleavage does the source give for G8A U25C U41C U43C A47G U58C here?
**A.** 0.01

**Q.** Which self-cleavage does the source give for G8A U43C A75U here?
**A.** 0.18

Reference: the RNAGym collection of RNA variant scans (doi:10.1093/nar/gkz1192)
